# From PubChem BioAssay AID1508642 (National Center for Advancing Translational Sciences (NCATS), 2021)
# Screen size: about 43,000 compounds; about 200 (0.47%) were called active. Roughly 12% stayed inconclusive and do not appear here. Calls come from the whole dose curve; as a rule, active = well fitted cell-killing curve with a large enough effect; inconclusive = small, poorly fitted or top-dose-only effect, or effect the other way; inactive = flat fitted curve, though single readings scatter. The list shows a part of the results.
# Assay: Cell viability qHTS assay in S16 Pmp22-F2sN cells; note: nearly all actives have a fitted effect of over 65% in size
# Settings: S16 Pmp22-F2sN Schwann cells (luciferase reporters placed in the Pmp22 gene) viability, CellTiter-Glo, 24 h; series mostly up to 57.5 µM; activity change, negative = cytotoxicity: at the top concentration
# Outline: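 Seed 500-1,000 S16 Pmp22-F2sN cells per well in phenol-red-free DMEM with 10% heat-inactivated FBS; pin-add 23 nL compound; incubate 24 h at 37C; add CellTiter-Glo, wait 15 min protected from light; read luminescence.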
# % is set by controls: 0 for no effect and ±100 for the full control effect.
row,Compound,"activity change, negative = cytotoxicity"
1,O=c1c2cc3c(nc2ncn1Cc1ccccc1F)CCCC3,inactive: -4.32%
2,COc1ccc(C(=O)NCCSc2c(C)[nH]c3ccccc23)cc1,inactive: -18%
3,COCCn1ccc2c(OCC(=O)NCc3ccc(F)cc3)cccc2c1=O,inactive: -0.942%
4,O=C(NC1CCCC1)c1ccc(CSc2nc3ccncc3n2Cc2ccc(F)cc2)cc1,inactive: -3.24%
5,COc1ccc(-n2cc(C(=O)NC(C)c3ccccc3)c3ccccc3c2=O)cc1 (configuration not stated),inactive: 4.95%
6,Cc1ccc(N2CC(c3nnc(NC(=O)c4ccco4)s3)CC2=O)cc1C (configuration not stated),inactive: -0.24%
7,CCOc1ccc(NC(=O)c2ccc(-c3cccc(Cl)c3C)o2)cc1,inactive: 11.8%
8,Cc1ccc(NC(=O)Cn2cc(S(=O)(=O)N3CCCC3)c(S(=O)(=O)N3CCCC3)c2)cc1C,inactive: -4.92%
9,CCc1ccc(-c2cc(C)no2)cc1S(=O)(=O)Nc1ccc(Cl)cc1,inactive: -18.8%
10,COc1ccc(-c2noc(-c3ccc(NC(C)c4ccccc4)c([N+](=O)[O-])c3)n2)cc1OC (configuration not stated),inactive: 12%
11,COc1cccc(NC(=O)c2cc3c(=O)n(Cc4cccnc4)ccc3nc2C)c1,inactive: -11.6%
12,Cc1ccc(-c2nc(S(=O)(=O)c3ccc(C)cc3)c(SCC(=O)NC3CCCCC3)o2)cc1,inactive: -2.26%
13,COc1ccccc1CNC(=O)CCC1N=C2c3ccccc3N=C(SCC(=O)NCCc3ccc(OC)c(OC)c3)N2C1=O (configuration not stated),inactive: -16%
14,COc1cc(NC(=O)C(CCS(C)(=O)=O)N2Cc3ccccc3C2=O)cc(OC)c1OC (configuration not stated),inactive: -5.71%
15,CCCN1C(=O)c2[nH]nc(-c3ccc(F)cc3)c2C1c1ccccn1 (configuration not stated),inactive: 9.16%
16,CC1CN(C(=O)N2CCC(C(=O)NC3CCCCCC3)CC2)c2ccccc2O1 (configuration not stated),inactive: 11%
17,CN(C)c1ccc(NC(=O)CSC2=Nc3ccccc3C3=NC(CC(=O)NCc4ccccc4)C(=O)N23)cc1 (configuration not stated),inactive: 9.63%
18,CCOC(=O)c1c(C)[nH]c(CCC(=O)NCc2ccccc2C)c1C,inactive: 15.5%
19,COc1ccc(CCNC(=O)c2nn(C)c3c2CSc2ccccc2-3)cc1OC,inactive: -19.3%
20,O=C(NCc1ccccc1)C(=O)NCC(c1cccnc1)N1CCN(c2ccccc2)CC1 (configuration not stated),inactive: -10.3%
21,O=C(c1ccco1)n1nc(-c2ccccc2)nc1NCc1ccccc1Cl,inactive: -1.74%

row,Compound,"activity change, negative = cytotoxicity"
1,CC(=O)Nc1ccc(S(=O)(=O)NCCc2csc3nc(-c4cccc(C)c4)nn23)cc1,inactive: -19.2%
2,Cc1ccc(N(Cc2cccs2)C(=O)COc2ccccc2[N+](=O)[O-])cc1,inactive: -24.1%
3,CCc1ccc(NC(=O)CSc2nc3ccsc3c(=O)n2C(C)CC)cc1 (configuration not stated),inactive: -29.4%
4,O=C(NCc1ccccc1Cl)C1CCC(CNS(=O)(=O)c2ccc(Br)s2)CC1 (configuration not stated),inactive: -0.0024%
5,COc1ccccc1-n1c(SCC(=O)Nc2ccc(C)cc2)nc(O)cc1=O,inactive: 13.8%
6,Cc1ccc(-c2nn3c(-c4ccc(C)cc4)nnc3c3ccccc23)cc1,inactive: 7.42%
7,Cc1ccc(NC(=O)c2ccc(Br)cc2)c(C(=O)c2ccccc2)c1,inactive: 14.4%
8,Cc1nc2nc(SCC(=O)NCc3ccccc3)nn2c(C)c1Cc1ccccc1,inactive: 0.346%
9,CC(C)CC(=O)Nc1ccc(Cl)c(-c2nc3ccccc3[nH]2)c1,inactive: -6.43%
10,CCc1cccc(NC(=O)CN2C=NS(=O)(=O)c3ccccc32)c1,inactive: -8.09%
11,CCOc1nc(NC(=O)NS(=O)(=O)Oc2ccccc2Cl)nc(-c2ccccc2)n1,inactive: -0.694%
12,Cc1ccc(NC(=O)CCc2c(C)nc3nc(C)nn3c2C)c(Cl)c1,inactive: 13.1%
13,COc1cc2nc(NCC(C)c3ccccc3)n3nc(-c4ccccc4)nc3c2cc1OC (configuration not stated),inactive: -3.23%
14,CCOC(=O)c1ccccc1NC(=O)N(Cc1ccco1)C1CCN(C(C)=O)CC1,inactive: -14.4%
15,COc1ccccc1C(=O)Nc1ccc(C(=O)OCc2cc(=O)n3ccsc3n2)cc1,inactive: -2.55%
16,Cc1ccc(N2CC(NC(=O)CCc3ccccc3)CC2=O)cc1 (configuration not stated),inactive: 5.04%
17,COc1ccccc1C(=O)NC(=O)Nc1ccc(-n2nc(C(F)(F)F)cc2C(F)(F)F)cc1,inactive: 4.1%
18,CC1=C(C(=O)NCc2ccc(Cl)cc2)C2(CCCCCC2)OC1=O,inactive: -12.6%
19,COc1ccc(-c2ccc3c(N)c(C(=O)Nc4cccc(C)c4)sc3n2)cc1,inactive: -1.52%
20,COc1cccc(CSc2nc3n(n2)C(c2cccnc2)C(C(=O)Nc2ccccc2C)=C(C)N3)c1 (configuration not stated),inactive: 14.9%
21,CCOC(=O)CCn1nc(C)c2c(C)n(-c3ccccc3)nc2c1=O,inactive: 1.71%

row,Compound,"activity change, negative = cytotoxicity"
1,Cc1cccc(N2CCN(C(=O)Cn3c(=O)c4cccn4c4ccc(F)cc43)CC2)c1C,inactive: 0.55%
2,Cc1nc2cc(C(=O)O)ccc2n1-c1ccc(C(C)C)cc1,inactive: -18.7%
3,CCOC(=O)c1sc(NC(=O)c2cc3nc(-c4ccc(Br)cc4)cc(C(F)(F)F)n3n2)c(C(=O)OCC)c1C,inactive: -6.12%
4,COc1ccc2[nH]cc(CCN=C(NC(=O)c3cccc(Cl)c3)Nc3nc(C)cc(C)n3)c2c1,inactive: -4.72%
5,CCOc1ccc(-c2nnc(SCC(=O)NCc3ccc(Cl)cc3)o2)cc1,inactive: 6.95%
6,O=C(CN1C(=O)C2(SCC(=O)N2c2ccccc2)c2ccccc21)Nc1ccccc1C(F)(F)F (configuration not stated),inactive: -3.01%
7,CC(=O)c1nn(-c2ccc(OC(F)(F)F)cc2)nc1Nc1ccc(Cl)cc1,inactive: 4.36%
8,CCOc1ccc(NC(=O)Cn2cc(S(=O)(=O)c3ccc(C)cc3)c(=O)c3cc(F)ccc32)cc1,inactive: 12.6%
9,CCc1ccccc1NC(=O)CC(C)S(=O)(=O)c1ccc2c(c1)NC(=O)CO2 (configuration not stated),inactive: 13.4%
10,CCc1ccc2occ(CC(=O)Nc3nnc(C)s3)c2c1,inactive: 2.97%
11,O=C(CSc1nc2c([nH]c3ccccc32)c(=O)n1-c1ccccc1)NCc1ccc(F)cc1,inactive: 0.546%
12,COc1ccc(S(=O)(=O)N2CCC(C(=O)NC(C)c3ccccc3)CC2)cc1 (configuration not stated),inactive: 4.98%
13,Cc1nc(N2CCCC2)ncc1C(=O)NCc1ccc(Cl)cc1,inactive: -11.9%
14,CC1=C(c2ccc(F)cc2)S(=O)(=O)N=C1N1CCC(C(=O)NCCc2ccccc2)CC1,inactive: 4.68%
15,O=C(NCc1ccc(Cl)cc1)c1cc2ccc3cccnc3c2[nH]1,inactive: 9.66%
16,Cc1ccc(NC(=O)NCCOCCn2c(=O)oc3ccccc32)c(C)c1,inactive: 3.46%
17,COc1cccc(-n2c(SCC(=O)Nc3cccc(C)c3)nc3c([nH]c4ccccc43)c2=O)c1,inactive: -6.26%
18,O=C(CSc1ccccc1)N1CCc2c([nH]c3ccccc23)C1c1ccc(Cl)cc1 (configuration not stated),inactive: -23.1%
19,Cc1cccc(S(=O)(=O)c2cn(C)c3cc(N4CCCCCC4)c(F)cc3c2=O)c1,inactive: -0.891%
20,Cc1cccc(NC(=O)c2cc(CN3CCOCC3)on2)c1C,inactive: 10.4%
